Experimental data reported in a compilation of properties of binary mixtures (doi:10.1016/j.molliq.2021.116049).
The densities may have been worked out from excess volumes.

Experiment: xn = mol fraction of the nth substance listed
Details: 100 kPa

CC[n+]1ccn(C)c1.O=S(=O)([N-]S(=O)(=O)C(F)(F)F)C(F)(F)F + CC[n+]1ccn(C)c1.F[B-](F)(F)F
mass density [kg/m3]
Details	283.15 K	288.15 K	293.15 K	298.15 K	303.15 K	308.15 K	313.15 K
x2 = 0.046	1557	1552	1547	1542	1537	1531	1526
x2 = 0.0996	1547	1542	1537	–	1526	1521	1516
x2 = 0.2134	–	1520	1514	1509	1504	1499	1493
x2 = 0.2947	1508	1503	1497	1492	1487	1482	1476
x2 = 0.3985	1484	1479	–	1469	1463	–	–
x2 = 0.4971	1460	–	1450	1445	–	1434	1429
x2 = 0.6016	1431	1426	1422	1417	1412	1407	1402
x2 = 0.6974	1403	1398	–	1389	1384	1379	–
x2 = 0.8024	1368	1364	1359	1355	–	–	1341.3
x2 = 0.9142	1327	1322.9	1318.7	1314.5	1310.4	1306.3	1302.2
x2 = 0.9347	–	1314.8	1310.6	1306.6	1302.5	1298.5	1294.5
